Reference: PubChem BioAssay AID485344 (National Center for Advancing Translational Sciences (NCATS), 2010)
In all, about 340,000 compounds went through this assay and about 6,900 (2%) were called active. No stated cut-off is given here; in the data, active means inhibition above about 30%; inactive means below that, where a call was filed. This is a selection; strong and weak results do not stand in their true shares. Where no call is shown, the source filed none.

biological target: D(2) dopamine receptor (Homo sapiens) (UniProt P14416); experiment: HTS Assay for Allosteric Antagonists of the Human D2 Dopamine Receptor: Primary Screen for Antagonists; conditions: HEK293 TREx D2 cells, calcium flux, dopamine EC80; at 10 µM; stronger effect = higher value; further: 0% is about no effect
In short: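 Tetracycline-induced HEK293 T-REx cells expressing D2 force-coupled to calcium signalling were dye-loaded, exposed to compound for 180 s, then challenged with an EC80 of dopamine; calcium flux was followed kinetically for a further 180 s.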

UniProt P14416, sequence (P14416 whole entry, looked up): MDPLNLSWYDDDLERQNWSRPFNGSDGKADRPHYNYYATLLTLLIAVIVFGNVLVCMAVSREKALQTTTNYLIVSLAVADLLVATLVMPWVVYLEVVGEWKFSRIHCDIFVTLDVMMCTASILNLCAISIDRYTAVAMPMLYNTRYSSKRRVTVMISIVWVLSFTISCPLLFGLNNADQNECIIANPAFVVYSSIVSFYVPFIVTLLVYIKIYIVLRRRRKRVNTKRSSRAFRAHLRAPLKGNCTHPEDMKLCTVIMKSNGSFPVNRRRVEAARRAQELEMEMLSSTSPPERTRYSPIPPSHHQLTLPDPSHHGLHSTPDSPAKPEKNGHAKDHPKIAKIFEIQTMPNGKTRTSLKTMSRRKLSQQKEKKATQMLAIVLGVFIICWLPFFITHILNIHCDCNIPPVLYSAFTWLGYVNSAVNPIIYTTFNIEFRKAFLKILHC

Row | SMILES | inhibition
1 | Cc1ccc(CNC(=O)c2c(C)oc3ncnc(N4CCOCC4)c23)cc1 | -7.51%
2 | Cc1ccc(-n2nc(C)c(C(=O)O)c2-n2cccc2)cc1 | 5.93%
3 | COc1ccc(CNC(=O)c2cc3ccccn3n2)cc1OC | -3.36%
4 | COc1ccc(/C=C\c2onc(C)c2S(=O)(=O)N2CCC(C(=O)Nc3cccc(OC)c3)CC2)cc1 | 10.7%
5 | CCOC(=O)c1c(C)[nH]c(C)c1S(=O)(=O)N(C)CC(=O)Nc1ccc(CC)cc1 | 14.6%
6 | COc1ccc(/C=N/NC(=O)CCN2CCN(c3ccccc3)CC2)c(OC)c1OC | active: 84%
7 | Cn1c(C(=O)NCCN2CCN(c3ccccc3F)CC2)cc2c(=O)n(C)c3ccccc3c21 | active: 95.5%
8 | N#Cc1c(-n2ncnc2-c2ccc(F)cc2)sc2c1CCCCC2 | 6.25%
9 | O=C(CSCc1cnn(-c2ccccc2)c1-n1cccc1)NCc1cccc(Cl)c1 | -26.9%
10 | CCCSc1ncc(Cl)c(C(=O)Nc2sc3c(c2C(=O)OC)CCCC3)n1 | 6.14%
11 | O=C(C1CCN(S(=O)(=O)c2ccc(Br)s2)CC1)N1CCN(c2cccc(C(F)(F)F)c2)CC1 | -0.23%
12 | O=C(Nc1ccccc1)c1nc[nH]c1C(=O)O | -6.71%
13 | Cc1cc(C)c2c(CC(=O)N(Cc3ccc(Cl)cc3)Cc3ccco3)coc2c1 | -12.4%
14 | Cc1c(-c2ccccc2)nc2c(Cl)cccc2c1C(=O)OCC(=O)c1ccc(F)cc1 | -7.67%
15 | COc1cc(OC)c(N(C)C(=O)c2c(C)oc3ncn(CC(C)C)c(=O)c23)cc1Cl | -0.849%
16 | CCOC(=O)CSc1nc2cc3c(cc2c(=O)n1Cc1ccc(C(=O)NCCc2ccc(OC)c(OC)c2)cc1)OCO3 | 1.25%
17 | Cc1ccc(NC(=O)Cn2cc(S(=O)(=O)Cc3ccc(F)cc3)c3ccccc32)cc1Cl | -7.57%
18 | CCOc1ccccc1C(=O)N(Cc1sccc1C)C1CCS(=O)(=O)C1 (centres undefined) | -3.23%
19 | COc1ccc(-c2cc(C(F)(F)F)nc(SCC(=O)NCCc3ccccc3)n2)cc1 | 0.427%
20 | COc1ccc(C(=O)c2sc(Nc3ccccc3)nc2N)cc1 | -15.1%
21 | CC(=O)c1cccc(NC(=O)CN(c2cc(C)cc(C)c2)S(=O)(=O)c2c(C)noc2C)c1 | -6.7%
22 | N#Cc1c(C(F)(F)F)cc(-c2cccs2)nc1SCC(=O)Nc1cccc(Cl)c1 | 0.0823%
23 | COc1ccc(-c2onc(C)c2C)cc1S(=O)(=O)N(C)Cc1ccccc1 | 0.95%
24 | C/C(=N\NC(=O)c1ccccn1)c1ccc(C(=O)O)s1 | active: 59.3%
25 | CCOC(=O)N1CCC(NCCNC(=O)c2ccc(F)cc2)CC1 | active: 66.2%

Row | SMILES | inhibition
26 | COc1ccc(NC(=O)c2ccco2)cc1NC(=O)c1cc(OC)c(OC)c(OC)c1 | -5.1%
27 | COc1ccc(S(=O)(=O)N2CCCCC2)cc1NC(=O)Cc1cccs1 | active: 37.9%
28 | CCCNC(=O)C1CCC(Cn2c(=O)c3sccc3n(CC(=O)NCc3cccc(OC)c3OC)c2=O)CC1 (centres undefined) | 1.21%
29 | O=C1C=C(c2cccc(CO)c2)C[C@@H](c2ccc(Cl)cc2)C1 | active: 52.1%
30 | CCOc1ccc(N2CC(NC(=O)C3CCCC3)CC2=O)cc1 (centres undefined) | -17.3%
31 | Cc1cc(C)c2c(NC(=O)c3ccccc3)c(C(=O)Nc3ccc(F)cc3)sc2n1 | 6.27%
32 | COc1cccc(N2CC(NC(=O)c3cc(Cl)ccc3OC)CC2=O)c1 (centres undefined) | -16.5%
33 | COc1ccc(OC)c(NS(=O)(=O)c2ccc(N3CCCCS3(=O)=O)cc2)c1 | 8.27%
34 | Cc1ccc(C(=O)N/C(=C\c2ccc(Cl)cc2)C(=O)NC2CCCCC2)cc1 | -9.12%
35 | Cc1cccc(NC(=O)Cn2c(=O)n(CCCCCC(=O)NCc3ccc4c(c3)OCO4)c(=O)c3sccc32)c1 | -0.758%
36 | COC(=O)c1scc(-c2ccc(C)cc2)c1S(=O)(=O)Nc1cc(C)ccc1OC | 2.14%
37 | Cc1ccc(NC(=O)c2cnc3sc(N4CCOCC4)nn3c2=O)cc1N(C)C | 9.63%
38 | COc1ccc(Nc2nc(C)nc(N)c2S(=O)(=O)c2ccccc2)cc1 | 8.89%
39 | COc1ccccc1C(=O)Nc1sc(Nc2ccccc2)nc1C(N)=O | 12%
40 | O=C(c1ccc2c(c1)N(Cc1ccccc1)C(=O)c1ccccc1S2(=O)=O)N1CCN(Cc2ccccc2)CC1 | -20.8%
41 | CC(C)CCn1c(/C=C/c2ccccc2)nc2ccccc21 | 1.2%
42 | Cc1ccc(-c2cn3ccc(C)cc3n2)cc1 | 7.37%
43 | Cc1cc(C)cc(NC(=O)CSc2nc3nccnc3c(=O)n2CCc2c[nH]c3ccccc23)c1 | 14.8%
44 | O=C(Nc1ccccc1Cl)N1CCSc2ccccc21 | 6.26%
45 | CCOC(=O)Cn1c(=O)n(C2CCCCC2)c2nc(-c3c(F)cccc3Cl)nc(C(N)=O)c21 | 1.72%
46 | CCOC(=O)Cc1ccc(NC(=O)N(Cc2ccc(CC)cc2)Cc2cn[nH]c2-c2ccc(OC)cc2)cc1 | -15%
47 | COc1cccc(C(=O)Nc2nc(-c3ccc(Br)cc3)ns2)c1 | -4.63%
48 | Cc1ccc(S(=O)(=O)N2CCN(Cc3nc4ccc(C)cc4o3)CC2)c(C)c1 | -12%
49 | Cc1ccccc1OCCn1c(CCNC(=O)C2CCCCC2)nc2ccccc21 | 12.7%
